Test results taken from PubChem BioAssay AID434955 (Southern Research Specialized Biocontainment Screening …, 2010).
Some of the results follow. Further columns of the screen follow, without active or inactive calls. Most of these compounds were active or inconclusive in the main read-out, so they are no random draw.

Experiment: beta-lactam sensitization of Mtb H37Rv, H37Rv (AID 434955);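 note: growth measured after seven days incubation then overnight dye step; 0% = bacteria only wells and 100% = bacteria with antibiotic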
Conditions: M. tuberculosis H37Rv growth with meropenem, percent inhibition; measured here: primary screen without meropenem; at 25 µM

| SMILES | inhibition [%] |
| --- | --- |
| CC(C)CC(O)(c1ccccc1)C(CN1CCOCC1)c1ccccc1 (stereo not given) | 4.11 |
| CCOC(=O)C1(Cc2cccc(Cl)c2)CCCN(C(=O)c2cn[nH]c2)C1 (stereo not given) | -8.53 |
| COc1ccc(N2C(=O)NC(NS(=O)(=O)c3ccc(NC(C)=O)cc3)(C(F)(F)F)C2=O)cc1 (stereo not given) | -7.47 |
| O=c1c2[nH]c3ccccc3c2ncn1CCN1CCOCC1 | 3.43 |
| Cc1n[nH]c(C)c1CCCOc1ccccc1 | 27.7 |
| CSCC[C@H](NC(=O)C1CCN(C(=O)[C@H](Cc2ccccc2)NS(=O)(=O)c2ccc(C)cc2)CC1)C(=O)O | -4.37 |
| O=C(c1cc(COc2ccc(F)cc2F)on1)N1CC[C@@H]2CCCC[C@H]2C1 | 8.08 |
| CCOCC(=O)Nc1ccc(F)c(F)c1 | 18.1 |
| CC1=C(C(=O)OCc2ccccc2)C(c2ccco2)n2ncnc2N1 (stereo not given) | -7.12 |
| COc1ccc(/C=N/n2c(C3CCCCC3)n[nH]c2=S)c(OC)c1 | 3.72 |
| Cc1ccccc1N1CCN(C2CCCN(C(=O)CN3CCCC3=O)C2)CC1 (stereo not given) | -0.66 |
| COc1ccc(S(=O)(=O)N2CCCCC2)cc1N(C)S(=O)(=O)c1ccccc1 | 4.62 |
| COc1ccc(C2NC3=C(CCCC3)C(C#N)(C#N)C2(C#N)C#N)cc1 (stereo not given) | -1.54 |
| O=c1c2cnn(-c3ccccc3)c2ncn1CCc1ccccc1 | 1.74 |
| CCOc1ccc(-c2cccc(NC(=O)COc3ccccc3)c2)nn1 | -0.05 |
| Cc1ccc(SCc2c(C#N)c3ccccc3n2C)cc1 | 39.4 |
| COCCn1c(SC(C(=O)Nc2cc(C)ccc2OC)c2ccccc2)nnc1-c1ccc(Cl)cc1 (stereo not given) | 12.1 |
| CCCCCc1c(C)nc(N2CCN(Cc3ccc4c(c3)OCO4)CC2)[nH]c1=O | -4.38 |
| Cc1cc(C)cc(NC(=O)c2nnn(Cc3cc(C)ccc3C)c2N)c1 | 1.84 |
| C#Cc1ccc(C(=O)Nc2cc(C(N)=O)ccc2N2CCOCC2)cc1 | -8.87 |
| Cc1ccc(S(=O)(=O)NCC2COc3ccccc3O2)cc1 (stereo not given) | 8.5 |
| CC(C)c1ccc(/C=N/n2c(COc3ccccc3)n[nH]c2=S)cc1 | 16 |
| COc1ccc(OCCNC(=S)Nc2cccc3ccccc23)cc1 | 1.76 |
| Cc1ncc(CN2CCC(N3CCC(C(=O)N4CCCC4)CC3)CC2)s1 | -1.84 |

| SMILES | inhibition [%] |
| --- | --- |
| Cn1c(=O)n(CC(=O)O)c(=O)c2c1nc1n2CCS1 | -6.65 |
| COc1ccc(C2c3c(oc4ccccc4c3=O)C(=O)N2CCCN2CCOCC2)cc1 (stereo not given) | -3.55 |
| O=C(CN1C(=O)c2cccnc2Oc2ccc(Cl)cc21)Nc1ccc(F)cc1 | -11.6 |
| Cc1ccc(S(=O)(=O)NCCCCCC(=O)Nc2ccccn2)cc1 | 24.2 |
| CN(NC(=O)c1c(Cl)cccc1Cl)c1cccc(Cl)n1 | 49.7 |
| O=C(Cn1cnc2c(nnn2-c2cccc(F)c2)c1=O)Nc1ccc2c(c1)OCCO2 | -2.78 |
| CCC(C)NC(=O)C1CCN(S(=O)(=O)c2ccc3[nH]c(=O)ccc3c2)CC1 (stereo not given) | -5.24 |
| COCCCNCCOc1ccc(C)cc1[N+](=O)[O-] | -5.82 |
| Cc1ccc(CNC(=O)c2ccccc2NC(=O)CSc2nnnn2C)cc1 | 19.2 |
| Cc1ccc(-c2nc3[nH]c(=O)cc(NC(=O)C(C)C)n3n2)cc1 | 9.7 |
| CC1CN(c2ccc([N+](=O)[O-])cc2F)CCN1C(=O)c1ccco1 (stereo not given) | 11.4 |
| COc1ccc(OCC(=O)NNC(=O)c2cccnc2)cc1 | 0.82 |
| CC(C)C(=O)c1cc2c(cc1NC(=O)c1ccccc1)OCCO2 | -2.35 |
| CCOC(=O)C1C(=O)NC(SC)=C(C#N)C1c1ccccc1F (stereo not given) | -1.22 |
| CCN1CCN(C(=O)Cn2c(=O)sc3ccccc32)CC1 | -2.88 |
| CCOC(=O)c1cc2c(=O)c3ccccc3oc2nc1C | -0.55 |
| O=C(Nc1ccc2c(c1)CCC2)C1CCN(c2c3c(nc4ncnn24)CCC3)CC1 | -2.3 |
| CC(=O)C1=C(O)C(=O)N(c2ccccn2)C1c1cccc(F)c1 (stereo not given) | 3.74 |
| CCOc1ccc(NC(=O)CN(C)C(=O)CCc2ccccc2Cl)cc1OCC | -11.4 |
| Cc1ccccc1OCC(=O)Nc1ccccc1N1CCOCC1 | 16.4 |
| O=C(c1csc2c1CCCC2)n1cccn1 | 3.53 |
| O=C(CN1CCOc2ccccc21)NCc1ccco1 | -4.39 |
| Cc1ccc(-c2nnn3c2nc(NCCc2ccc(S(N)(=O)=O)cc2)c2ccccc23)cc1 | 10.7 |
| Cc1ccc(C(=O)N2CCN(c3ccccc3)CC2)cc1S(=O)(=O)N1CCOCC1 | -0.64 |

| SMILES | inhibition [%] |
| --- | --- |
| CC1CCCCN1CCNC(=O)CCc1nnc2n(Cc3ccccc3)c(=O)c3ccccc3n12 (stereo not given) | -12.4 |
| CC(=O)N1CCN(c2ccccc2NC(=O)c2cccs2)CC1 | 2.97 |
| CC(=O)c1ccc(NC(=S)Nc2ccc(N3CCOCC3)cc2)cc1 | 2.24 |
| Cc1cccc(CSc2nnc(C)c(=O)n2N)c1 | 34.4 |
| COc1ccc(-n2nnnc2/C=C\Nc2ccccc2C(=O)c2ccccc2)cc1 | -1.36 |
| Cc1ccc(C(=O)N2CCCC(CCC(=O)NCc3ccccc3F)C2)cn1 (stereo not given) | 3.06 |
| CCOC(=O)N1CCN(Cc2ccccc2Cl)CC1 | -0.21 |
| O=C(CSc1nc2ccccc2c(=O)[nH]1)Nc1ccc(S(=O)(=O)N2CCCC2)cc1 | -4.19 |
| CN(C)CCCN(C(=O)c1ccco1)c1nc2cc3c(cc2s1)OCO3 | -0.71 |
| COc1ccc(C(=O)N2CCCC(CCC(=O)N3CCN(c4ccccn4)CC3)C2)cc1 (stereo not given) | 0.72 |
| O=C1/C(=C\c2ccncc2)CCc2ccccc21 | 97.9 |
| O=C(NNC(=O)c1ccc[nH]1)c1cc(Cl)cc(Cl)c1 | -3 |
| COc1ccc(CN(CCC#N)C(=S)NC(=O)c2ccccc2)cc1 | 35.1 |
| COc1ccc(NS(=O)(=O)c2coc(C(N)=O)c2)cc1Cl | 0.12 |
| COC(=O)c1ccc(OCC2NCCc3cc(OC)c(OC)cc32)cc1 (stereo not given) | 3.13 |
| CC1(C)Cc2ccccc2-c2nnc(-c3cccnc3)n21 | -6.33 |
| CN(Cc1nccs1)C(=O)c1ccc(OC2CCN(CCc3ccccc3)CC2)cc1 | -1.19 |
| COc1cc(OC)cc(-c2cc3ccc(OC)cc3cn2)c1 | 48.7 |
| Cc1ccc(C(=O)N2CCOCC2)cc1S(=O)(=O)N1CCOCC1 | 3.69 |
| Cc1ccc(NC(=O)/C=C\C(=O)O)c([N+](=O)[O-])c1 | 5.94 |
| COc1ccc(N(C)C(=O)c2cc3c(s2)-c2ccccc2OC3)c(OC)c1 | -2.89 |
| CC(C)(C)c1nn(-c2ccccc2)c2[nH]c(=O)c(CNc3ccc4c(c3)OCCO4)cc12 | 52.8 |
